# PubChem BioAssay AID1347073 (National Center for Advancing Translational Sciences (NCATS), 2019)
# In all, about 45,000 compounds went through this assay and about 200 (0.44%) were called active. Another 7% or so got no clear call; they are omitted. Calls come from the whole dose curve; as a rule, active = well fitted activation curve with a large enough effect; inconclusive = small, poorly fitted or top-dose-only effect; inactive = no such curve, though single readings can be large or run the other way. Some of the results follow.
# Experiment: qHTS of TDP-43 Inhibitors: NCGC Sytravon Library Screen; note: 0% is about no effect; nearly all actives have a fitted effect of over 55% in size
# Details: yeast TDP-43 toxicity rescue, BacTiter-Glo growth, 24 h; series mostly up to 46.1 µM; growth rescue (activation): at the top concentration
# In short: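 TDP-43-expressing yeast, pregrown in raffinose, seeded at OD600 0.02 in galactose medium with compound for 24 hr at 30 deg C. Growth read by BacTiter-Glo luminescence, so rescue of toxicity appears as activation.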
row,Structure (SMILES),growth rescue (activation)
1,O=C(Nn1cnnc1)c1ccc(Cl)c([N+](=O)[O-])c1,inactive: -3.17%
2,CC(=O)c1cccc(NC(=O)C(C)OC(=O)CCc2nc3ccccc3c(=O)[nH]2)c1 (stereo not drawn),inactive: 0.294%
3,CCOC(=O)Cc1cnc(NC(=O)CSc2nc(C(C)C)cc(=O)[nH]2)s1,inactive: -9.04%
4,COC(=O)C1=C(C)N(C2CCCCC2)C(=O)/C1=C\c1cccs1,inactive: 7.55%
5,CCCNc1nc2nc3ccccn3c(=O)c2cc1C(=O)NCCN1CCOCC1,inactive: -6.99%
6,Cc1ccccc1Nc1c([N+](=O)[O-])ccc2nonc12,inactive: -12.2%
7,Cc1nn2c(N3CCN(C)CC3)cc(C(C)(C)C)nc2c1-c1ccccc1,inactive: 1.97%
8,CC1CCCN(C(=O)C2CC(=O)N(c3ccc(Cl)cc3)C2)C1 (stereo not drawn),inactive: 7.71%
9,COC(=O)c1sc(NC(=O)C2c3ccccc3Oc3ccccc32)c(C(=O)OC)c1C,inactive: 1.7%
10,O=C(CSc1nncn1-c1ccccc1)c1c[nH]c2ccccc12,inactive: 6.17%
11,COc1ccc(NC(=S)N2CCN(C(=O)C3CCCO3)CC2)cc1 (stereo not drawn),inactive: 15.6%
12,CC(=O)Nc1ccc2c(CSc3nncs3)cc(=O)oc2c1,inactive: 15.8%
13,O=C(CCCC(=O)c1ccccc1)NCCc1ccccc1,inactive: -5.86%
14,CC1(C)CC(NC(=O)c2ccc(Br)o2)CC(C)(C)N1,inactive: -13.4%
15,O=C(/C=C/c1ccccc1)NCc1cccnc1,inactive: -6.15%
16,CC(C)Oc1snc(Cl)c1C(N)=O,inactive: -3.88%
17,CCOC(=O)c1c(-c2ccccc2)cn2c(C)cc(C)nc12,inactive: 10%
18,CC(C)(C)c1cc(P(=O)(c2ccccc2)c2ccccc2)ccc1O,inactive: -0.751%
19,O=C(CCN1CCCC1)Nc1cccc(Br)c1,inactive: -28.9%
20,COc1ccc(C(=O)CC(=O)C(=O)Nc2cccc(C(C)=O)c2)cc1,inactive: -11.1%
21,Cc1cc(C)nc(SCC(=O)NN=C2CCCC2)n1,inactive: -1.65%
22,Nc1nc(-c2ccccn2)nc(N)c1Cc1ccccc1F,inactive: 4.2%
23,CC(C)Oc1cc(S(=O)(=O)N2CCCCC2)ccc1N,inactive: 4.51%
24,COc1ccc(CN(C)CC2CCCN(CCc3ccccc3C)C2)cc1O (stereo not drawn),inactive: 2.85%
25,Cc1[nH]c(=O)c(C#N)c(C)c1Cc1ccc(Cl)cc1Cl,inactive: -4.5%

row,Structure (SMILES),growth rescue (activation)
1,O=C(CCSc1ccccc1)NCC1CCCO1 (stereo not drawn),inactive: 31.7%
2,CCN(CC)S(=O)(=O)c1ccc(NS(=O)(=O)c2ccc3oc(=O)[nH]c3c2)cc1,inactive: -3.67%
3,c1cc(-c2ccc3[nH]ccc3c2)n2ccnc2c1,inactive: -5.58%
4,COc1ccc(NC(=O)CN(C)C(=O)c2cnc(Cl)c(Cl)c2)cc1,inactive: 6.51%
5,Cc1c(CCC(=O)O)c(=O)oc2cc3occ(-c4ccc(Cl)cc4)c3cc12,inactive: 11.5%
6,COc1ccc(S(=O)(=O)N(CC(=O)NCC2CCCO2)C2CCCCC2)cc1OC (stereo not drawn),inactive: -4.11%
7,COc1ccc(C(=O)NC(=S)Nc2ccc3[nH]c(=O)[nH]c3c2)cc1,inactive: 7.72%
8,C=CCNC(=O)[C@H]1N2C(=O)c3ccccc3C2SC1(C)C (stereo partly drawn),inactive: 3.14%
9,O=C(NC1CCN(Cc2ccccc2)CC1)c1cccc(OC(F)F)c1,inactive: 6.76%
10,CCc1ccc(NC(=S)N2CCNC(=O)C2CC(=O)OC)cc1 (stereo not drawn),inactive: 4.5%
11,CCCCCCCCCCCCCCCC[n+]1cccc2ccccc21,inactive: -81.6%
12,Cc1ccc(S(=O)(=O)N(C)C)cc1N,inactive: 8.74%
13,COc1cc(C)c(Cl)cc1S(=O)(=O)N1CCCC1,inactive: 3.86%
14,CC1N(C)c2cc(NC(=O)c3cccs3)c(P(=O)(Nc3ccc([N+](=O)[O-])cc3)N3CCOCC3)cc2C1(C)C (stereo not drawn),inactive: -0.686%
15,Cc1c([N+](=O)[O-])c([N+](=O)[O-])nn1CC(=O)N1CCOCC1,inactive: -1.62%
16,O=C(Nc1nnc([C@H]2C[C@H](O)[C@@H](CO)O2)s1)Nc1ccccc1C(F)(F)F,inactive: 6.11%
17,COc1ccc(N(C(=O)c2ccco2)C(C(=O)NC2CCCC2)c2ccc(OC)c(OC)c2)cc1 (stereo not drawn),inactive: 10.8%
18,CCn1c2ccccc2c2cc(CN3CCN(Cc4ccc(OC)c(OC)c4)CC3)ccc21,inactive: 8.76%
19,COc1ccc(NS(=O)(=O)c2ccc3oc(SCc4ccc(F)cc4)nc3c2)cc1,inactive: -16.1%
20,CCOC(=O)N1N=C(c2ccccc2)CC1(O)C(C)(F)F (stereo not drawn),inactive: -3.44%
21,Cc1ccc(OCC(=O)NCCNC(=O)c2ccncc2)cc1C,inactive: 6.4%
22,CCN(CC)C(=S)NCCc1ccccc1,inactive: -6.13%
23,O=c1ccc(=O)n2n1CC(O)C2,inactive: -5.99%
24,Cc1ccc(C)c(OCCSc2nnc(-c3cccnc3)n2N)c1,inactive: 7.38%
25,O=C(NCc1cccc(C(F)(F)F)c1)c1ccc2sc([C@@H]3O[C@H](CO)[C@H](O)[C@H](O)[C@H]3O)nc2c1,inactive: 19.1%

row,Structure (SMILES),growth rescue (activation)
1,CC1(C)C2CCC1(CS(=O)(=O)Nc1ccccc1)C(=O)C2 (stereo not drawn),inactive: -2.28%
2,Cc1cc(Cl)cc(Br)c1OCCCNCC(C)O (stereo not drawn),inactive: -2.03%
3,C[N+]1(CCOc2ccc([N+](=O)[O-])cc2)CCOCC1,inactive: -14.9%
4,CC(Oc1ccc(F)cc1Br)c1nc2ccccc2c(=O)[nH]1 (stereo not drawn),inactive: 23.1%
5,CNc1cncc(-c2ccc(CN3CCOCC3)cc2)n1,inactive: -5.46%
6,Cc1nn(-c2ccccn2)c(N)c1N=O,inactive: 22.7%
7,CN(C)c1ccc(N=Nc2ccccc2C(=O)OCC(=O)N(C)C2CCCCC2)cc1,inactive: -0.427%
8,O=C(CCc1nnc(Cc2ccc(-c3ccccc3)cc2)o1)N1CCCC1,inactive: 20.2%
9,CNC(=O)C(NC(=O)c1ccccc1)=C(C)C,inactive: 0.416%
10,CC1Cc2ccccc2N1C(=O)CN1CCCCC1 (stereo not drawn),inactive: 6.92%
11,CC(C)(C)CC(=O)Nc1nnc(SCC(=O)NC2CCCC2)s1,inactive: 9.83%
12,COC(=O)COc1ccc2c(=O)c(-c3ccccc3OC)coc2c1,inactive: -9.2%
13,Cc1cc(Br)ccc1NC(=O)CSc1nnc(CN2CCOCC2)n1C,inactive: -5.58%
14,O=C(NC(=S)NCc1cccnc1)c1ccccc1F,inactive: -9.73%
15,COc1ccc(NC(=O)CCNC(=O)c2ccco2)cc1Cl,inactive: 2.83%
16,Cc1ccccc1NC(=O)COC(=O)/C=C/c1cccc(C(F)(F)F)c1,inactive: 9.12%
17,COc1ccc(C(=O)N2CCCC(c3cc(C(=O)NCc4ccccc4)no3)C2)cc1 (stereo not drawn),inactive: 12.4%
18,Cc1cnc(C(=O)N(CC(C)C)c2c(N)n(CC(C)C)c(=O)[nH]c2=O)cn1,inactive: 6.33%
19,C/C(=N\NC(=O)CNc1cccc2ccccc12)c1ccc(Br)s1,inactive: 10.8%
20,CCN1CCN(c2c(Cl)cccc2NC(=O)c2ccc([N+](=O)[O-])cc2)CC1,inactive: 8.28%
21,O=C1CCN(S(=O)(=O)c2ccccc2)N1,inactive: 7.7%
22,Cc1cc(C)cc(NC(=O)CCCSc2nc3ccccc3[nH]2)c1,inactive: -9.01%
23,O=C(CSc1nc2ncc(Cl)cc2[nH]1)c1c[nH]c2ccccc12,inactive: 20.2%
